Assay results taken from patent US20200031885A1 (published 2020).
Non-standard residues stand in square brackets, D forms with d. No end group written: not given here. pY = N[C@@H](Cc1ccc(OP(=O)(O)O)cc1)C(=O)O

Tests used:
Test in all cases: affinity capture from mixture of 54 pTyr peptides, PRM-MS
[1] = biological target: T1, EPHA8 (pTyr793) peptide VLEDDPDAApYTTTGGK
T1 peptide: VLEDDPDAA[pY]TTTGGK

[2] = biological target: T2, JAK2 (pTyr221) peptide IQDpYHILTR
T2 peptide: IQD[pY]HILTR

[3] = biological target: T3, EPHB3 (pTyr792) peptide FLEDDPSDPTpYTSSLGGK
T3 peptide: FLEDDPSDPT[pY]TSSLGGK

[4] = biological target: T4, EPHA1 (pTyr781) peptide LLDDFDGTpYETQGGK
T4 peptide: LLDDFDGT[pY]ETQGGK

[5] = biological target: T5, INSRR (pTyr1145/1146) peptide DVYETDpYpYR
T5 peptide: DVYETD[pY][pY]R

[6] = biological target: T6, EPHA2 (pTyr772) peptide VLEDDPEATpYTTSGGK
T6 peptide: VLEDDPEAT[pY]TTSGGK

[7] = biological target: T7, PTK7 (pTyr960/961) peptide DVYNSEpYpYHFR
T7 peptide: DVYNSE[pY][pY]HFR

[8] = biological target: T8, TEC (pTyr519) peptide YVLDDQpYTSSSGAK
T8 peptide: YVLDDQ[pY]TSSSGAK

[9] = biological target: T9, ERBB2 (pTyr877) peptide LLDIDETEpYHADGGK
T9 peptide: LLDIDETE[pY]HADGGK

[10] = biological target: T10, LMTK2 (pTyr295) peptide EDpYIETDDK
T10 peptide: ED[pY]IETDDK

[11] = biological target: T11, RET (pTyr905) peptide DVYEEDSpYVK
T11 peptide: DVYEEDS[pY]VK

[12] = biological target: T12, SRMS (pTyr380) peptide DDIpYSPSSSSK
T12 peptide: DDI[pY]SPSSSSK

[13] = biological target: T13, TIE1 (pTyr1007) peptide GEEVpYVK
T13 peptide: GEEV[pY]VK

[14] = biological target: T14, ITK (pTyr512) peptide FVLDDQpYTSSTGTK
T14 peptide: FVLDDQ[pY]TSSTGTK

[15] = biological target: T15, PGFRB (pTyr857) peptide DSNpYISK
T15 peptide: DSN[pY]ISK

[16] = biological target: T16, EPHA3 (pTyr779) peptide VLEDDPEAApYTTR
T16 peptide: VLEDDPEAA[pY]TTR

[17] = biological target: T17, HCK (pTyr411) peptide VIEDNEpYTAR
T17 peptide: VIEDNE[pY]TAR

[18] = biological target: T18, FRK (pTyr387) peptide VDNEDIpYESR
T18 peptide: VDNEDI[pY]ESR

[19] = biological target: T19, KIT (pTyr823) peptide NDSNpYVVK
T19 peptide: NDSN[pY]VVK

[20] = biological target: T20, TIE2 (pTyr992) peptide GQEVpYVK
T20 peptide: GQEV[pY]VK

[21] = biological target: T21, EPHB1 (pTyr778) peptide YLQDDTSDPTpYTSSLGGK
T21 peptide: YLQDDTSDPT[pY]TSSLGGK

[22] = biological target: T22, VGFR2 (pTyr1059) peptide DPDpYVR
T22 peptide: DPD[pY]VR

[23] = biological target: T23, VGFR1 (pTyr1053) peptide NPDpYVR
T23 peptide: NPD[pY]VR

[24] = biological target: T24, BLK (pTyr389) peptide IIDSEpYTAQEGAK
T24 peptide: IIDSE[pY]TAQEGAK

[25] = biological target: T25, BMX (pTyr566) peptide YVLDDQpYVSSVGTK
T25 peptide: YVLDDQ[pY]VSSVGTK

[26] = biological target: T26, EPHB4 (pTyr774) peptide FLEENSSDPTpYTSSLGGK
T26 peptide: FLEENSSDPT[pY]TSSLGGK

[27] = biological target: T27, SRC (pTyr419) peptide LIEDNEpYTAR
T27 peptide: LIEDNE[pY]TAR

[28] = biological target: T28, GSK3 (pTyr279/216) peptide GEPNVSpYICSR
T28 peptide: GEPNVS[pY]ICSR

[29] = biological target: T29, FER (pTyr714) peptide QEDGGVpYSSSGLK
T29 peptide: QEDGGV[pY]SSSGLK

[30] = biological target: T30, MERTK (pTyr753/754) peptide IYSGDpYpYR
T30 peptide: IYSGD[pY][pY]R

[31] = biological target: T31, FES (pTyr713) peptide EEADGVpYAASGGLR
T31 peptide: EEADGV[pY]AASGGLR

B1: wild-type (wt) human Src SH2 domain expressed with His6 and GST tags (other)
chain: not shown
notes: also called wt SH2 domain; parent human Src SH2 domain
[1]
  binding result: no binding (tested: 10 nmole SH2 domain)
[2]
  binding result: no binding (tested: 10 nmole SH2 domain)
[3]
  binding result: no binding (tested: 10 nmole SH2 domain)
[4]
  binding result: no binding (tested: 10 nmole SH2 domain)
[5]
  binding result: no binding (tested: 10 nmole SH2 domain)
[6]
  binding result: no binding (tested: 10 nmole SH2 domain)
[7]
  binding result: no binding (tested: 10 nmole SH2 domain)
[8]
  binding result: no binding (tested: 10 nmole SH2 domain)
[9]
  binding result: no binding (tested: 10 nmole SH2 domain)
[10]
  binding result: no binding (tested: 10 nmole SH2 domain)
[11]
  binding result: no binding (tested: 10 nmole SH2 domain)
[12]
  binding result: no binding (tested: 10 nmole SH2 domain)
[13]
  binding result: no binding (tested: 10 nmole SH2 domain)
[14]
  binding result: no binding (tested: 10 nmole SH2 domain)
[15]
  binding result: no binding (tested: 10 nmole SH2 domain)
[16]
  binding result: no binding (tested: 10 nmole SH2 domain)
[17]
  binding result: no binding (tested: 10 nmole SH2 domain)
[18]
  binding result: no binding (tested: 10 nmole SH2 domain)
[19]
  binding result: no binding (tested: 10 nmole SH2 domain)
[20]
  binding result: no binding (tested: 10 nmole SH2 domain)
[21]
  binding result: no binding (tested: 10 nmole SH2 domain)
[22]
  binding result: no binding (tested: 10 nmole SH2 domain)
[23]
  binding result: no binding (tested: 10 nmole SH2 domain)
[24]
  binding result: no binding (tested: 10 nmole SH2 domain)
[25]
  binding result: no binding (tested: 10 nmole SH2 domain)
[26]
  binding result: no binding (tested: 10 nmole SH2 domain)
[27]
  binding result: no binding (tested: 10 nmole SH2 domain)
[28]
  binding result: no binding (tested: 10 nmole SH2 domain)
[29]
  binding result: no binding (tested: 10 nmole SH2 domain)
[30]
  binding result: no binding (tested: 10 nmole SH2 domain)
[31]
  binding result: no binding (tested: 10 nmole SH2 domain)
